According to patent US5171271A, “Polypeptides with fibronectin activity” (Regents of the University of Minnesota, priority 1991, dated 1992):
Values joined by “and” are separate entries in the source; they are usually repeats but may differ in a detail not shown here. Equal values may be shown once. “Also recorded” adds a separate entry of the source. Read-outs that look alike come from different tables or passages of the source. Part of at least one peptide drawing is inferred or uncertain, most often the ends. Ends that are not written are not given here.

Experiments:
[1] = tested on: K1735M4 metastatic melanoma cells; settings: for Tumor Cell Adhesion, Adherent Cells: melanoma cells, one hour
[2] = Solid phase heparin-binding assay on Immulon C plates
Procedure: Both peptides IIa and CS I were then compared for relative heparin-binding activity. Plastic Immulon C plates (Dynatech, Alexandria, Va.) were adsorbed with 100 μl in triplicate) of the indicated levels of peptides IIa, CS I or BSA as described. The ability of the 33 kD fragment to bind heparin was also determined, for comparison, although due to the relative size of this fragment compared with the peptides, different coating concentrations were used. The actual coating levels of the 33 kD fragment were 4, 20, 100 and 500 μg/ml. Following the blocking of nonspecific binding sites with BSA, the ability of these various substrata to bind ^3 H-heparin was determined by the addition of approximately 4,000 disintegrations per minute (dpm) of this ligand. All conditions of the assay were as described in U.S. patent application Ser. No. 89,073, the disclosure of which is incorporated by reference herein.
The three peptides derived from peptide Ila and intact peptide IIa, were adsorbed to Immulon C plates at the indicated concentrations (100 μl/ well) in triplicate and tested for the ability to bind ^3 H-heparin as described hereinabove. The results of this study are summarized on FIG. 5. […] Rather, a specific primary structure is crucial for this activity. In the case of peptide IIa, (KNNQKSEPLIGRKKT) the heparin-binding activity can be localized to the carboxyl terminal third of this peptide (corresponding to the sequence LIGRKKT, peptide IIa-C).
Peptides I, IIa and III-V were adsorbed at the indicated concentrations (100 μl/well), in triplicate, to Immulon C plates as described hereinabove.

[3] = tested on: CNS neurons from spinal cords of 6-day chick embryos; experiment: Neurite outgrowth assay, CNS neurons; type: cell-based
Procedure: Peptides I, II, IIa, III, CSI or intact fibronectin were diluted in Voller's buffer (0.05M Carbonate buffer, pH 9.6) and 100 μl of each concentration was dipensed into 96 well tissue culture plates in triplicate. The plates were then placed in a sterile hood overnight to evaporate the buffer and to dry the peptides onto the plate. The following morning, 200 μl of phosphate-buffered saline (PBS) containing 5 mg/ml bovine serum albumin (PBS/BSA) were added to each well and the plates were incubated for an additional 3 hours. At that point, the PBS/BSA was aspirated and cells in the appropriate media were added to each well.
Embryonic CNS nerve cell cultures were prepared by the method of Rogers et al., Devel. Biol., 98, 212-220 (1983). Briefly, spinal cords from 6-day chick embryos were isolated and their dorsal halves removed and placed Ca^++ -Mg^++ free (CMF) Hank's balanced salt solution for 10 minutes at 37° C. Only the ventral portions, containing predominantly motor neurons, were prepazed for culture. The cords were then dissociated in 0.25% trypsin (Bactotrypsin, Difco) in CMF Hanks for 25 minutes at 37° C. The trypsin containing medium was replaced with Ham's F12, buffered with HEPES and supplemented with 10% fetal calf serum, and the cells repeatedly pipetted to complete dissociation. The single-cell suspension was pelleted by centrifugation, rinsed with Ham's F12-HEPES plus serum, centrifuged, and resuspended in Ham's F12 supplemented with sodium bicarbonate and glutamine (2 mM), penicillin (100U/ml), streptomycin (100U/ml) and plated into wells which had been prepared as described below in the presence and absence of the indicated concentrations of heparin. Cultures were incubated for 24 hours at 37° C. in a humidified incubator in 5% CO2 and then fixed in glutaraldehyde. The number of neurons with neurites was quantitated by randomly sampling 10 fields with the aid of a dissecting microscope.
Substrata were coated with 100 μl of a 500 μg/ml solution of the indicated peptides or with 5 μg/ml of the 33 kD heparin-binding fragment of fibronectin as described hereinabove. Following the blocking of nonspecific sites with BSA, suspensions of either central nervous system (CNS) neurons isolated from the spinal cozds of emoryonic chickens, or peripheral nervous system (PNS) neurons isolated from the dorsal root ganglia of embryonic chickens, were plated onto the various coated substrata. Data represent the average number of neurons expressing neurites in these culture, and represent the mean of triplicate cultures.

[4] = tested on: Bovine aortic endothelial cells; experiment: Aortic endothelial cell adhesion assay; type: cell-based; settings: for Adherent Cells: endothelial cells, 90 minutes
Procedure: Bovine aortic encothelial cells were isolated according to the following protocol. Aortas were obtained from a local slaughterhouse, washed in cold phosphate buffered saline (PBS) (136 mM NaCI, 2.6 mM KCl, 15.2 mM Na2 HPO4, pH 7.2) and processed within 2 hours. Crude collagenase (CLS III, 125-145 units per mg dry weight, Cooper Biomedical) was used at 2 mg/ml in Dulbecco's modified Eagle's medium (DMEM) (GIBCO). The vessel was clamped at the distal end, filled with the collagenase-PBS solution and digestion was carried out for 10 minutes. The lumenal contents were harvested, followed by the addition of fresh collagenase for two additional 10-minute periods. The enzyme-cell suspensions were added to an equal volume of DMEM containing 10% fetal bovine serum (FBS) to inhibit the enzyme and spun in a centrifuge at 400×g for 10 minutes. The resulting cell pellet was resuspended in DMEM containing 10% FBS, 100 units/ml of penicillin G, 100 μg/ml of streptomycin and 100 μg/ml of crude fibroblast growth factor. Cells are cultured in 75 cm^2 flasks in a humidified 5% CO2 atmosphere at 37° C. Cultures were fed twice a week with the same medium and cells were used in assays when approximately 75% confluent. Cells were identified as endothelial in nature by characteristic cobblestone morphology, contact inhibition of growth upon reaching confluency, and positive immunofluorescent staining for factor VIII:RAg (Miles Laboratories) [S. Schwartz, In Vitro. 14, 966 (1978)]. Only endothelial cells, megakaryocytes and platelets are known to contain the factor VIII:RAg. This method routinely gives a high yield of endothelial cells with little contamination (less than 5%) by smooth muscle cells, pericytes or fibroblasts as judged by phase contrast microscopy as well as by immunostaining.
Adhesion was measured using 96 well microtiter plates adsorbed with fibronectin or peptides I and II. Cultures of cells which were 60-80% confluent were metabolically labeled overnight with the addition of 10 μCi/ml of ^3 H.amino acids. On the day of the assay, the cells were harvested by trypsinization, the trypsin was inhibited by the addition of serum, and the cells were washed free of this mixture and resuspended in DMEM buffered with HEPES at pH 7.2. The adhesion medium also contained 5 mg/ml BSA. The cells were adjusted to a concentration of 3-4×10^4 /ml, and 100 μl of this cell suspension was added to the wells. The assay mixture was then incubated at 37° C. for 90 minutes. At the end of the incubation, the wells were washed with warm PBS containing 10 mM Ca^++, and the adherent population was solubilized with 0.5N NaOH containing 1% sodium dodecyl sulfate. The solubilized cells were then quantitated using a liquid scintillation counter. Each determination was done in triplicate.

[5] = Heparin-binding assay on nitrocellulose sheets
Procedure: The assay for heparin binding utilizes nitrocellulose sheets as substrata to bind peptides or proteins to be tested for heparin binding activity. Peptides I and II or intact fibronectin (fn) were solubilized in 50 mM (NH4)2 CO3 and diIuted to the concentrations indicated in FIGS. 2 and 3. Nitrocellulose sheets which had been presoaked in 50 mM NH4 CO3 were placed in a 96 well dot blot apparatus (Bethesda Research Laboratories Bethesda, Md.), and 250 μl of various concentrations of each peptide were aspirated through the wells. Each well was then washed three times with binding buffer (10 mM Tris-HCl, pH 8.0, 0.15 M NaCl), and the filters were removed and allowed to air dry overnight. The filters were then equilibriated for 5 minutes at room temperature in binding buffer which contained 10 mM CaCl2. ^3 H-heparin was then diluted to a concentration of 50,000 cpm/ml in binding buffer (with Ca^++), and nitrocellulose sheets were incubated in the presence of this mixture for 2 hours. The filters were then washed four times with binding buffer, and air dried. The individual spots of samples were cut out of the nitrocellulose and bound heparin was quantitated with a liquid scintillation counter.

[6] = tested on: PNS neurons isolated from the dorsal root ganglia of embryonic chickens; experiment: Neurite outgrowth assay, PNS neurons; type: cell-based, chicken
[7] = coating concentration 400 μg/ml
[8] = coating concentration 4000 μg/ml
[9] = coating concentration 200 μg/ml
[10] = coating concentration 2000 μg/ml
[11] = CNS neurons, coating conc. 500 μg/ml

Substance: KNNQKSEPLIGRKKT [Peptide IIa, lys-asn-asn-gln-lys-ser-glu-prc-leu-ile-gly-arg-lys-lys-thr]
- Promotion of melanoma cell adhesion (in words) [1]: promoted the adhesion of melanoma cells in culture
- 3H-heparin binding (in words) [2]: bound heparin in a concentration-dependent fashion
- 3H-heparin binding (in words) ([2]; listed as peptide IIa): retained the ability to bind ^3 H-heparin in a concentration dependent fashion
- Promotion of neurite extension by CNS neurons (in words) ([3]; CNS neurons): demonstrate neurite promoting activity in both populations of neurons

Substance: KNNQKSEP [IIa-A, lys--asn--asn--gln--lys--ser--glu--pro]
- 3H-heparin binding (in words) [2]: extremely poor heparin-binding activitY

Substance: LIGRKKT [IIa-C, leu--ile--gly--arg--lys--lys--thr]
- 3H-heparin binding (in words) [2]: extremely high heparin-binding activity, even when used at very low coating concentrations
- Heparin binding compared with another peptide (in words) [2]: binds heparin much better than does the parent peptide (peptide IIa)

Substance: KNNQKSEPLIGRKKTDEL [Peptide II, lys-asn-asn-gln-lys-ser-glu-pro-leu-ile-gly-arg-lys-lys-thr-asp-glu-leu]
- Promotion of endothelial cell adhesion (in words) [4]: much more effective than peptide I at promoting endothelial cell adhesion
- Adherent Cells ([4]; coating concentration 40 μg/ml): 901 Counts Per Minute
- Adherent Cells [4, 7]: 1734 Counts Per Minute
- Adherent Cells [4, 8]: 14,199 Counts Per Minute
- Melanoma Cell Adhesion, Percent Adhesion ([1]; concentration 80 μg/ml): 13.7%
- Melanoma Cell Adhesion, Percent Adhesion ([1]; concentration 400 μg/ml): 11.3%
- Tumor Cell Adhesion, Adherent Cells ([1]; coating concentration 40 μg/ml): 4600 Counts Per Minute
- Tumor Cell Adhesion, Adherent Cells [1, 9]: 4700 Counts Per Minute
- Tumor Cell Adhesion, Adherent Cells [1, 7]: 4300 Counts Per Minute
- Tumor Cell Adhesion, Adherent Cells [1, 10]: 3900 Counts Per Minute
- Promotion of neurite extension by CNS neurons (in words) ([3]; CNS neurons): much more effective than peptide I at promoting neurite outgrowth
- Number of Neurons with Neurites, With 10 μg/ml Heparin [3, 11]: 75
- Number of Neurons with Neurites, Without Heparin ([3]; CNS neurons, coating conc. 500 μg/ml, duplicate values): 220 and 194
- Number of Neurons with Neurites ([3]; coating concentration 500 μg/ml, dose response, duplicate values): 47 and 32
- Number of Neurons with Neurites ([3]; coating concentration 1 mg/ml, duplicate values): 47 and 51
- Number of Neurons with Neurites ([3]; coating concentration 2 mg/ml, duplicate values): 39 and 70
- 3H-heparin binding (in words) [5]: bound ^3 H-heparin in a concentration dependent manner
- Lowest concentration which promoted 3H-heparin binding ([5]; coating concentration): 25 µM

Substance: YEKPGSPPREVVPRPRPGV [Peptide I, tyr-glu-lys-pro-gly-ser-pro-pro-arg-glu-val-val-pro-arg-pro-arg-pro-gly-val]
- Adherent Cells ([4]; coating concentration 40 μg/ml): 1024 Counts Per Minute
- Adherent Cells [4, 7]: 1107 Counts Per Minute
- Adherent Cells [4, 8]: 981 Counts Per Minute
- Promotion of melanoma cell adhesion (in words) [1]: capable of promoting the adhesion of melanoma cells
- Tumor Cell Adhesion, Adherent Cells ([1]; coating concentration 40 μg/ml): 3900 Counts Per Minute
- Tumor Cell Adhesion, Adherent Cells [1, 9]: 3500 Counts Per Minute
- Tumor Cell Adhesion, Adherent Cells [1, 7]: 3000 Counts Per Minute
- Tumor Cell Adhesion, Adherent Cells [1, 10]: 4000 Counts Per Minute
- 3H-heparin binding (in words) [2]: bound heparin well and specifically
- Number of Neurons with Neurites, With 10 μg/ml Heparin [3, 11]: 3
- 3H-heparin binding (in words) [5]: bound poorly; also recorded: did not bind heparin well

Substance: SPPRRARVT [IV, ser--pro--pro--arg--arg--ala--arg--val--thr]
- Heparin binding compared with another peptide (in words) [2]: bind heparin more strongly than does peptide V

Substance: YRVRVTPKEKTGPMKE [Peptide III, tyr--arg--val--arg--val--thr--pro--lys--glu--lys--thr--gly--pro--met--lys--glu]
- Promotion of neurite extension by PNS neurons (in words) [6]: demonstrate neurite promoting activity in both populations of neurons
- Promotion of melanoma cell adhesion (in words) [1]: active at promoting melanoma cell adhesion in a concentration dependent fashion
- Melanoma cell adhesion activity relative to peptide IIa ([1]; highest concentration tested): twice as active as peptide IIa
- Heparin binding compared with another peptide (in words) [2]: bind heparin more strongly than does peptide V; also recorded: greater ability of low concentrations of peptide III to bind ^3 H-heparin when compared to peptide IIa

Substance: KSEPLIGR [IIa-B, lys--ser--glu--pro--leu--ile--gly--arg]
- 3H-heparin binding (in words) [2]: slightly higher heparin activity at high coating concentrations
- Heparin binding compared with another peptide (in words) [2]: binds heparin much more weakly than peptide II(carboxyl)
